Experimental data reported in the supplement of paper PMC11417369.
± gives the standard deviation of the averaged measurements. This is one part of the list.

system: PfAP2-I AP2 domain 3 (GST-tagged); assay: gcPBM binding intensity (ln(normalized median fluorescence intensity)); higher = stronger DNA binding
In short: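 Plasmodium falciparum DNA-binding domains carrying a GST tag were expressed in E. coli and applied for 1 h, at about 25 μg on average, to an Agilent 4 × 180k array. The array held primer-extended double-stranded 36-bp intergenic genomic probes together with negative controls, and binding took place in 1× PBS with 1% milk, 0.2 mg/ml BSA, 0.5% salmon testes DNA and 0.03% Triton X-100. An Alexa488 anti-GST antibody detected bound protein, and the array was scanned at 488 nm. Binding intensity is taken as the highest Masliner-normalised natural-log median intensity across replicate spots of either probe orientation.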

| Sequence | gcPBM binding intensity (ln) |
| --- | --- |
| CATTAAAATATGAGATGTACACAATATCTATTATAT [XGTACX_site4979] | 7.82 ± 0.51 |
| ATTTAAATATCTTCTTTTTTTTTTTTTTTTGAAATT [CACACA_negctrl_site1074] | 7.12 ± 0.86 |
| TTTATAATTCCATAATGTACAAATAAAATAAAAAAT [XGTACX_site663] | 7.99 ± 0.51 |
| AAAACTTTTAAAATTTTGTATTCATTCCTTCAACAA [GTGCAC_negctrl_site697] | 7.51 ± 0.76 |
| AGGAGGATAGTTCACAGTACCCAGTAACTCTACGAG [XGTACX_site2008] | 7.36 ± 0.53 |
| AAAATTAATGTTGGTTGTACAAAAATTAAATATGGT [XGTACX_site66] | 8.39 ± 0.32 |
| GTACAAAGGACTATACATAGAAAAATATATATATAT [XGTACX_negctrl_site164] | 9.22 ± 0.26 |
| AAAGATTTAATCTATACATGCAAATATATAGAAAAG [TGCATGCA_site373] | 7.63 ± 0.76 |
| AATAAAAATAGGAAATGTACACATATATATATATAT [XGTACX_site1853] | 9.35 ± 0.21 |
| TATATATACACACACACATGCATGCCGATATATATA [TGCATGCA_site29] | 8.13 ± 0.46 |
| AAAAGATATTTGAATATACACACGATTTAAATTTAA [CACACA_site3865] | 7.57 ± 0.58 |
| GAACAAAATTTTATATGTACATAATATTTATATATA [XGTACX_site3667] | 8 ± 0.2 |
| AGATGCCAAGTATAAAGTACATATCAAAATGTATAT [XGTACX_site456] | 7.68 ± 0.58 |
| TTATTTTATTTTTATACACACATGTTTTAATGTTCA [CACACA_site249] | 7.99 ± 0.59 |
| TTAATAGAAATACGTGCACACTAAAGGGAAAACAAT [CACACA_site4923] | 10.32 ± 0.092 |
| ACAAGTATTAATTACACACTCAAAAAGAAAAAACAA [CACACA_site2281] | 7.75 ± 0.42 |
| ATATATTCTATATATACATGCATATATATTATATGT [TGCATGCA_site185] | 7.72 ± 0.67 |
| ATGCAACTATATATATATATTATATGTATGAATAAT [XGTACX_negctrl_site434] | 7.63 ± 0.41 |
| TGAATAAATATGCAGCGTACATAATCCTCTTAAAAT [XGTACX_site8462] | 7.87 ± 0.39 |
| GTTAAATGAAAATATGTACACACTTGAAAATTTTTA [CACACA_site2924] | 7.86 ± 0.37 |
| AAAGTATATAGGATACGTACATACATAAATAAATAA [XGTACX_site8216] | 7.84 ± 0.73 |
| GTACAAAATTGACAAGTGCAAAAATTAAAAGCAAGA [GTGCAC_site9838] | 9.69 ± 0.39 |

| Sequence | gcPBM binding intensity (ln) |
| --- | --- |
| GTGTGAGCACATTCGGGAGAGTTTTTTTTTTTTTTT [CACACA_negctrl_site1776] | 8.7 ± 0.74 |
| TATAAAAATAAGCACACACACAAATATAGATTTATT [CACACA_site6558] | 7.95 ± 0.23 |
| ATATATATATAAATATGTACATATATTTATTTCTTT [XGTACX_site3784] | 8.88 ± 0.028 |
| TATATTCAAAATGGTACACACAATATTTAATTGTGC [CACACA_site2631] | 7.68 ± 0.34 |
| ACATTTTCTTATAAATGTACATATATATTATTATAT [XGTACX_site4404] | 7.72 ± 0.33 |
| TGACATATAAAATATTCACACACAAGTTATAGTTCT [CACACA_site9209] | 7.42 ± 0.5 |
| AAAACAAACAAAAAAAAAAAAAAAAATATCAATCTA [TGCATGCA_negctrl_site203] | 7.01 ± 0.52 |
| GACGTGGAAAAAAAAACACACACAAAAAAAAAAAAA [CACACA_site9324] | 8.19 ± 0.74 |
| TGAACATCATTTTTATGTACACACACATATACGTTG [XGTACX_site3864] | 7.96 ± 0.28 |
| ATATATCATGCCAAGGGTACAAATGTGTAGTTGAAA [XGTACX_site2820] | 7.99 ± 0.73 |
| TATATATATATATATACATGCATTTTTGTTTGCTTA [TGCATGCA_site256] | 9.23 ± 0.27 |
| TTTTTTTTTTCTCCTGCATGCAGCATTTATATATTA [TGCATGCA_site390] | 10.1 ± 0.57 |
| GACAACGTTTCAATGTGTACATATTTATAATATATA [XGTACX_site2427] | 7.87 ± 0.62 |
| TATATATATATATGTACACACATCAATCATATTAAC [CACACA_site1946] | 9.41 ± 0.4 |
| ATTGAAAAACCGTTTAGTACATATCATCACGTTTGT [XGTACX_site1295] | 7.78 ± 0.37 |
| TAAAATAAAATAAGTAGTACATATATAATTATATAT [XGTACX_site6733] | 7.73 ± 0.37 |
| TTTTTTTTTTTTTTTACACACTGCATACAAGAAAAA [CACACA_site5642] | 8.54 ± 0.66 |
| AAAATACGAATATAAACATGCACCATATAGAACAAA [TGCATGCA_site925] | 9.22 ± 0.099 |
| TTTTTACAAAAAAAAAAAAAAAAAATAAAAATAAAT [CACACA_negctrl_site1738] | 7.41 ± 0.73 |
| TACAAATATAGATGCACACACATATACATACCTATA [CACACA_site7094] | 8.72 ± 0.2 |
| AATTTTAAATTTAATTTACACACTTTTCATAGCATT [CACACA_site9264] | 7.79 ± 0.73 |
| TATAAAACACACACACATATATATATATATTTATAT [TGCATGCA_negctrl_site48] | 7.81 ± 0.47 |

| Sequence | gcPBM binding intensity (ln) |
| --- | --- |
| ATTTACAAAAATTTTGTATAAAGGGATTTTAAAATG [TGCATGCA_negctrl_site350] | 8.02 ± 0.33 |
| GAAAAAAAAAAAAAAAGTACATTCTCTATTTCATGT [XGTACX_site3209] | 7.42 ± 0.35 |
| ATAAATTTAAATAGGAGTACACAGCTTTATATTTTG [XGTACX_site4176] | 7.72 ± 0.56 |
| TAATTACCATATGGTACACACATATTTATAGGTATA [CACACA_site7603] | 7.68 ± 0.44 |
| CGCGCACCCAGACACACACACACACCCATATATATA [CACACA_site2203] | 8.44 ± 0.7 |
| ACGTATAATATGTACACACACATATATACCAAAAAA [CACACA_site4661] | 7.97 ± 0.37 |
| GATAAAATAATATATAGTACTTTTTTAAAATAAATA [XGTACX_site522] | 7.59 ± 0.21 |
| ATTACATTTTTGTTTTGTACATATATTTTATAAACA [XGTACX_site494] | 7.91 ± 0.51 |
| CGTAATAATTAATGTTGTACCCACCAAAAAAATTAA [XGTACX_site8592] | 8.01 ± 0.23 |
| TATATTTATATATATACACACATAATAAAAAATATA [CACACA_site844] | 7.57 ± 0.35 |
| TTGTTTTGTAATAAAAAAAAAATAATATAATATAAT [XGTACX_negctrl_site300] | 7.74 ± 0.61 |
| GAAATATTGAAACACACACACAAACATATATATATA [CACACA_site1911] | 9.31 ± 0.11 |
| TTTATAGTTTTAAACAAAGTAATACAAATGTATATA [CACACA_negctrl_site1716] | 7.42 ± 0.4 |
| TATAAAAAAAATAAAATAAAATAAAATAGAAAAATA [TGCATGCA_negctrl_site109] | 7.46 ± 0.36 |
| AAACGTTTATTTTATTGTACATATGAAAAATGCTTC [XGTACX_site6896] | 7.81 ± 0.45 |
| AACATTATCAAATAAACCATAAATCAATTCAATATG [CACACA_negctrl_site696] | 7.46 ± 0.57 |
| ATATTTTTTTTTTTCACACACATTTAGATTGTATTA [CACACA_site3137] | 7.96 ± 0.76 |
| AAAAAAAAAAAAAATTGTACGGATTCTTTTTTTTTT [XGTACX_site2898] | 7.96 ± 0.69 |
| TTGTATAAAAAACTAAAAAATATAAAATAATAAGTG [CACACA_negctrl_site1704] | 7.88 ± 0.47 |
| TATATACATTTTTATGTGCACATTTTATTTTTAAAT | 10.2 ± 0.19 |
| TAAATCACAAAATTATGTACTAAGAAGGAGCAACAT [XGTACX_site6742] | 8.05 ± 0.45 |
| TATACCTTAATATACACACATACATATATATATATA [CACACA_site1339] | 9.12 ± 0.32 |

| Sequence | gcPBM binding intensity (ln) |
| --- | --- |
| GGGGAAAAAGCAGGTTGTACAGTGATGTCCATATAA [XGTACX_site7606] | 8.29 ± 0.52 |
| TAACAAAGTAAAAGAACATGCAAACACGCACACAGA [TGCATGCA_site374] | 8.31 ± 0.69 |
| AGTGTATTAAATTTTGAACACACAAAATAAAACATA [CACACA_site8483] | 8.185 ± 0.078 |
| TTTTAATTTAAAAATTAATTTATATATATATATATA [TGCATGCA_negctrl_site447] | 9.44 ± 0.3 |
| TTTAGACTTTTCTATAGTACATATTATATATATATA [XGTACX_site6532] | 9.05 ± 0.13 |
| TTATTGCGCACAATTTGTACATATATATATATAGAA [XGTACX_site7573] | 9.79 ± 0.35 |
| GAAAAATTAAAATGTGGTACAATAAAATTTTATTCA [XGTACX_site5030] | 7.69 ± 0.4 |
| ATATTTATACTATACACACCCAATTTAAAAAAAAAT [CACACA_site1163] | 8.04 ± 0.48 |
| AATTTATTAATACAAAGTACTTTCTAATATGAATTT [XGTACX_site8013] | 7.57 ± 0.56 |
| GTAAGAAACAGACACACACACATATAAATATAAATA [CACACA_site6515] | 7.84 ± 0.51 |
| TATTGAAAAAGTGGAAAAAAGTACATCATACGGGAA [CACACA_negctrl_site1091] | 8.3 ± 0.54 |
| TTCTTAAAAAATCAAACACACATATATATATACATA [CACACA_site2296] | 7.61 ± 0.45 |
| ATAAATAGAATAAAATGTACATGTAATACATATATA [XGTACX_site5475] | 7.43 ± 0.36 |
| GTTTAGATAAAAGGGCGTACATCTATTTTTGACTAA [XGTACX_site7170] | 7.91 ± 0.56 |
| AAAAAAAAAAAAAAAACACACAATTGAATTATTAAG [CACACA_site2864] | 8.69 ± 0.48 |
| TTTTATTATTAAACATGTACCCATATTATTGTTATG [XGTACX_site5563] | 7.74 ± 0.52 |
| AAAAAAAAAAAATATATATATATATATATAATATTT [GTGCAC_negctrl_site678] | 7.71 ± 0.24 |
| GAATAAATAAAAATATGTACATAAATATATATATAT [XGTACX_site8858] | 9.2 ± 0.2 |
| AAAAAAAAATAAAAAAGTACAGGTAAATATATATAT [XGTACX_site5812] | 8.88 ± 0.25 |
| ATACTTTAAAATAATACACACATGGAAAATAAAATT [CACACA_site697] | 8.11 ± 0.67 |
| AAGACAAATATGTATTGTACGAACGCTTTTTAATTA [XGTACX_site1961] | 7.45 ± 0.69 |
